Measurements reported in a melting point compilation (Tetko et al.; mined from patent text by program, amines drawn as free bases though some values may be those of a salt).

Compound CCN1C(=O)C(NC(=O)C(F)(F)F)CCc2c1ccc(Nc1ncc(Cl)c(Nc3ccc(N(C)C)cc3OC)n1)c2OC (stereo unspecified) has a melting point of 192 to 193 °C.
